Sequences and labels used below:
B1: CPEB3 Ribozyme (parent)
chain: UAACAGGGGGCCACAGCAGAAGCGUUCACGUCGCAGCCCCUGUCAGAUUCUGGUGAAUCUGCGAAUUCUGCUGUAUAUCUC

The source gives no read counts; variants with many changes may rest on few reads.

In this data set the parent is B1. The experiment in a line: self-cleavage, relative activity (ratio to wild type); higher = more cleavage; in vitro, sequencing. Summed up: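 Relative activity compares each variant's cleaved/total read fraction with that of the unmutated ribozyme. To get these fractions, barcoded CPEB3 ribozyme libraries from rounds of error-prone PCR were transcribed with T7 RNA polymerase for 5 hours at 37°C and then given 15 min of DNase I treatment before EDTA was added. The RNAs were reverse transcribed with template switching and sequenced on Illumina, and DNA sequencing linked barcodes to variants. A minimum of 5 reads applied, and three batches were averaged.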
Take C12A G24A C32A U58C A64G U69A: the self-cleavage was 0.03. For the variant C12U A18U U41A U43C G55A U69G, the self-cleavage was found to be 0.05.

Turning to C11U A18G U58C C68U, the self-cleavage is 0.05.

For C12A A28U U41A A57G, the self-cleavage amounted to 0.06. The figure for C11U A18C U26C A56G U66G U80C is 0.03; for C11U U43A U60A it is 0.52; for C12G U41C A75G U78C it is 0.9.

For C11U A20C U25C C32A C59U U60A U72G, the self-cleavage is 0.03. The figure for C11U A21C U49C U69G U80A is 0.03. For the variant C11U U43C U48C, the self-cleavage came to 0.07.

Turning to C11U A21G U31C U43A G52C U74C U76C, the self-cleavage is 0.14.

C12G U51G U80A: the self-cleavage came out at 0.86. Then C12U A15C A57G, with 1.14; and C11U C27A U48C, with 0.23. For the variant C12U A15U U31C U41A, the self-cleavage came to 0.21. As for C12U A47G U72C U80C, the self-cleavage was 1.31. Then C12U A13U U25C A64G U74C U78C, with 0.15; and C12U A21G C23U C38U A56G, with 0.24.

For the variant C12A U25C U78C, the self-cleavage was 0.09. As to C12U A20G C32A C40U C44G A45G U60C, the self-cleavage came out at 0.06.

For the variant C11G U51C U66G U78A, the self-cleavage worked out at 0.07. Then C11U C39U A45U A47G U60A, with 0.37. For the variant C11U A13G C62U, the self-cleavage worked out at 0.03.

Take C12A A57G A64G: the self-cleavage amounted to 0.93. Then C12A A13G A21G G22A U54C, with 0.16. With C11U A15G U48C G61C U78C, the self-cleavage is 0.05. Then C12A A13U A21G G24A U51A U58C, with 0.05; and C12A U25A A64G, with 0.45. Then C12A A13G U72C, with 1.12; and C11U G63A U80C, with 0.32; and C12U A13G U31A G46C U60A U69A, with 0.09. Then C11U A35G C37G U51A A64G U67C, with 0.05; and C12G A45G U80C, with 0.24; and C12U A21G U51A C79G, with 1.28. As for C12U A13G U41C U72C, the self-cleavage worked out at 0.43. On to C11U A18G A28U A56G U69C U78A U80C, for which the self-cleavage amounted to 0.08.

Turning to C12A A21G A35G U66G, the self-cleavage worked out at 0.41. For the variant C12G U54A A75G, the self-cleavage amounted to 0.22. As for C12A A35G A64C, the self-cleavage amounted to 0.21.

Regarding C11U U49C U69G U80C, the self-cleavage was 0.04. In the case of C11U C12A G19C U26C G30C U54A U69C, the self-cleavage amounted to 0.1. Then C11U C12A A45C, with 0.27; and C12U A13G U31A A45C U49C, with 0.22; and C11U A15G U26C C40U U76C, with 0.06.

With C12A A28C U66A, the self-cleavage worked out at 0.26. Then C12G A28G U49A, with 0.16.

Turning to C12A A13U A21G G24A U25G, the self-cleavage worked out at 0.06. C11U A15G A77U: the self-cleavage was found to be 0.34. As to C12U A15U C39U U69C, the self-cleavage is 0.22. As to C12G A13U U25C U26A C40A U54C, the self-cleavage turned out to be 0.15.

C11U A18U A21G C38A U69C: the self-cleavage was found to be 0.03. Then C12G A15U C23G C44A U54G A64G, with 0.03; and C12U A13U U31A, with 1.09; and C12A A18C C32A A57C U67A U72C, with 0.06. The figure for C11U G55A A57G A77G is 0.19. Turning to C12G C27A U67C U74C, the self-cleavage amounted to 0.09. In the case of C11U A13U A45G U80A, the self-cleavage worked out at 0.15. The figure for C12U A13G A28G U31C A47C U51A U76A is 0.06; for C11U A13G A45U U51A U60A it is 0.3; for C12A A35G U72A U78C it is 0.09. For the variant C11U A20G A45G U78G U80A, the self-cleavage was found to be 0.12.

For the variant C11U U25C A75U, the self-cleavage was found to be 0.13. The figure for C11U A47U U66A is 0.13; for C11G U51C U58A it is 0.13; for C11U C32A A56G U69A it is 0.21. Turning to C12A A28G U51C U74A, the self-cleavage came to 0.96. The figure for C12U A21G U43A U51C is 1.04; for C12A U26C C81A it is 0.64. As to C12A A35G A47G U67A U72C, the self-cleavage came to 0.37.

As to C11U U26C A35U U49C A64U, the self-cleavage was 0.06.

For C12U A18U A56G A65G U67C U76C, the self-cleavage amounted to 0.21. C11U U25A U26C U69C A77U: the self-cleavage turned out to be 0.04. With C11U C23U C32G C44U U54C, the self-cleavage is 0.04.

Consider C12U A18G U60A A64G, for which the self-cleavage is 0.18. The figure for C12U A18U U41G A56G is 0.29; for C11U U25A U51C A57G U67C U80C it is 0.05. Then C12U A15C U60C U67C, with 0.46. Take C12A A28G G33A U43A A75G U78C: the self-cleavage came out at 0.04. Take C12A A57G U74A: the self-cleavage came out at 0.93. The figure for C11U A13U U26A G33A is 0.09; for C11U A13U U31A A35G U41C U80C it is 0.75; for C12U A35U A64G it is 0.72. For C11U A18U A20U A45G U49C, the self-cleavage stood at 0.08.

The values above are taken from the RNAGym collection of RNA variant scans (doi:10.1093/nar/gkz1192).
